# Test results from PubChem BioAssay AID902 (National Center for Advancing Translational Sciences (NCATS), 2007).
# Out of some 130,000 compounds screened, about 1,900 (1.5%) were called active. This list was built around the results that the source calls inconclusive (neither active nor inactive); the mix of calls is not that of the screen. Calls come from the whole dose curve; as a rule, active = well fitted cell-killing curve with a large enough effect; inconclusive = small, poorly fitted or top-dose-only effect; inactive = no such curve, though single readings can be large or run the other way. Potencies beside an inconclusive call are fits to weak or partial responses and may not hold up.
# Assay: qHTS Screen for Compounds that Selectively Target Cancer Cells with p53 Mutations: Cytotoxicity of p53ts Cells at the Nonpermissive Temperature; note: nearly all actives have a fitted effect of over 55% in size
# Conditions: H1299-p53A138V viability at 39C, ATP luminescence, 24 h; activity change, negative = cell killing: at 46.1 µM (top of the series)
# % is set by controls: 0 for no effect and ±100 for the full control effect; potency is the fitted concentration of half-maximal effect; tags give direction and shape of the fitted curve.
SMILES,Potency,"activity change, negative = cell killing"
CCOc1ccc(CCNC(=O)Cn2ccc3cc(S(=O)(=O)N4CCCCCC4)ccc32)cc1,"inconclusive: 3.98 µM [cytotoxic, single point]",–
CC(=O)Nc1ccccc1/C=C/c1ccc2c(C)cc(C)c(O)c2n1,inactive,–
CCCCOc1ccc(-c2nnn(CCC(=O)N3CCOCC3)n2)cc1,"inconclusive: 10 µM [cytotoxic, partial curve]",–
O=C(Nc1nnc2n1CCS2)c1cc(C(F)(F)F)cc(C(F)(F)F)c1,"inconclusive: 2 µM [cytotoxic, full curve]",–
N#C/C(=C\c1ccc(O)c(O)c1)C(N)=O,"inconclusive: 31.6 µM [cytotoxic, single point]",–
COc1ccc(/C=C/C(=O)Nc2cccc(F)c2)cc1,active: 7.94 µM,–
COc1ccc(CNC(=O)C2CCN(c3nnc(C)c4c(C)n(-c5ccc(C)cc5)nc34)CC2)cc1,"inconclusive: 31.6 µM [cytotoxic, single point]",–
Cc1ccccc1NC(=O)C1CCN(S(=O)(=O)c2cccc3nonc23)CC1,inactive,–
O=S(=O)(c1cccc2c(I)cccc12)N1CCCNCC1,"inconclusive: 12.6 µM [cytotoxic, partial curve]",–
CC1=C(C(=O)Nc2ccc(C)cc2C)C(c2cc(Br)ccc2F)n2ncc(C(=O)Nc3ccc(C)cc3)c2N1 (centres undefined),active: 12.6 µM,–
Cc1ccc2c(c1)-c1onc(C(=O)N(C)c3ccc(F)cc3)c1CO2,"inconclusive: 5.62 µM [cytotoxic, single point]",–
COc1ccc(C(=O)c2no[n+]([O-])c2C(=O)c2ccc(OC)cc2)cc1,"inconclusive: 25.1 µM [cytotoxic, single point]",–
COCCn1c(=S)[nH]c2cc(C(=O)N3CCc4ccccc43)ccc2c1=O,inactive,–
COc1cccc(-c2cncnc2NCCN2CCOCC2)c1,"inconclusive: 31.6 µM [cytotoxic, single point]",–
O=C(CCc1nnc2n(Cc3ccccc3Cl)c(=O)c3ccccc3n12)Nc1ccccc1,inactive,–
CCc1ccc(S(=O)(=O)Nc2ccc3oc(C)c(C(=O)OCCOC)c3c2)cc1,inactive,–
Cc1nn(-c2ccc(N3CCCCC3)nn2)c(C)c1CCC(=O)Nc1cccc(F)c1,"inconclusive: 10 µM [cytotoxic, partial curve]",–
CC(=O)c1ccc(S(=O)(=O)Nc2cccc(-c3ccc(N4CCCC4)nn3)c2)cc1,"inconclusive: 7.94 µM [cytotoxic, partial curve]",–
CCC(=O)N1CCc2cc(S(=O)(=O)NC(CC(C)C)C(=O)NCc3cccc(OC)c3)ccc21 (centres undefined),inactive,–
COc1cc(NC(=O)C2CCN(S(=O)(=O)c3c(C)noc3/C=C/c3c(C)cc(C)cc3C)CC2)cc(OC)c1,"inconclusive: 1.26 µM [cytotoxic, full curve]",–
Oc1c(C(Nc2ccccn2)c2ccccn2)ccc2cccnc12 (centres undefined),active: 3.98 µM,–
N#C/C(=N\Nc1ccccc1F)C(=N)N1CCCCC1,"inconclusive: 10 µM [cytotoxic, partial curve]",–

SMILES,Potency,"activity change, negative = cell killing"
Cc1ccc(NC(=O)c2sc3nc[nH]c(=O)c3c2C)cc1C,"inconclusive: 15.8 µM [cytotoxic, partial curve]",–
Cc1sc2ncnc(N3CCC(C)CC3)c2c1C,inactive,–
O=C(Nc1cccc(-c2nc3ccccc3[nH]2)c1)c1cccc(NC(=O)c2ccco2)c1,"inconclusive: 20 µM [cytotoxic, single point]",–
COC(=O)c1ccccc1NC(=O)CSc1c2c(nc3ccc(Cl)cc13)CCCC2,"inconclusive: 25.1 µM [cytotoxic, single point]",–
CCOc1ccc(CNC(=O)CN2C(=O)CSc3c2c(C)nn3-c2ccccc2)cc1,"inconclusive: 0.0158 µM [cytotoxic, full curve]",–
O=C(C1CC1)N1CCc2cc(Br)cc(S(=O)(=O)Nc3ccc(C(F)(F)F)cc3)c21,"inconclusive: 15.8 µM [cytotoxic, single point]",–
CCOc1ccc(-n2nc3ccc(NC(=O)COc4ccccc4C)cc3n2)cc1,"inconclusive: 7.94 µM [cytotoxic, partial curve]",–
COc1cccc(/C=N/NC(=O)c2[nH]nc3c2CCc2ccccc2-3)c1O,"inconclusive: 2.82 µM [cytotoxic, full curve]",–
CCn1cnc2cc(NCc3ccc(N(C)C)cc3)ccc21,"inconclusive: 31.6 µM [cytotoxic, single point]",–
COCCn1c(-c2ccco2)nc2nc3ccccc3nc21,inactive,–
CCCC(=O)Nc1ccc(NC(=O)c2ccccn2)cn1,"inconclusive: 15.8 µM [cytotoxic, partial curve]",–
O=C(Cn1c(SCC(=O)Nc2ccc(F)cc2)nc2ccccc21)NCc1ccc(Cl)cc1,–,inconclusive: -44.5% [cytotoxic]
COC(=O)[C@@]1(Cc2ccc(OC)cc2)[C@@H]2C(=CC(=O)[C@H]2CC(=O)C(=O)N2CCCC2)CN1C(=O)c1ccccc1,inactive,–
O=C1Nc2ccccc2/C1=N\c1sc2c(c1C(=O)Nc1ccccc1)CCCC2,inactive,–
O=C(Nc1nnc(S(=O)(=O)N2CCCCCC2)s1)c1ccccc1,"inconclusive: 15.8 µM [cytotoxic, single point]",–
CCC(=O)Nc1cccc(OCc2cc(=O)n3cc(C)ccc3n2)c1,"inconclusive: 7.94 µM [cytotoxic, partial curve]",–
CCOC(=O)c1ccc(NC(=O)CCC(=O)N2CCSc3ccccc32)cc1,"inconclusive: 12.6 µM [cytotoxic, partial curve]",–
CN(C)CCNC(=O)C(=O)NCC(c1cccnc1)N1CCN(c2ccccc2)CC1 (centres undefined),"inconclusive: 31.6 µM [cytotoxic, partial curve, poor fit]",–
c1cnc2c(c1)ccc1cccnc12,active: 3.16 µM,–
COc1cc(OC)c(N(C)C(=O)CSc2c3c(nc4ccc(Cl)cc24)CCCC3)cc1Cl,"inconclusive: 20 µM [cytotoxic, single point]",–
COc1ccc(C(=O)Nc2ccc3oc(-c4cc(Cl)ccc4Cl)nc3c2)cc1Br,active: 10 µM,–
Clc1cccc(-n2ncc3c(Nc4ccc5c(c4)OCCO5)ncnc32)c1,"inconclusive: 3.16 µM [cytotoxic, partial curve, poor fit]",–
